Source: the supplement of paper PMC11876631
Changes are numbered by the printed parent chain. In names and notes the source's numbering stands. ± gives the standard deviation of the averaged measurements. Laboratory Escherichia coli strains with one amino-acid change in an essential protein, pooled on minimal glucose agar with carbenicillin or gentamicin at twice the control MIC (plus kanamycin and chloramphenicol for the plasmids), 48 h. Fold change of barcode share against drug-free plates; higher = less susceptible. Active = above 20 in both replicates (the paper's putatively resistant). '<' = one read or none on drug, '>' = one read or none on a drug-free plate. Shares are relative, so most strains fall below 1 when a few take over. Listed are strains with at least 15 reads on both drug-free plates, and hits; most hits rest on fewer reference reads. Replicate rank correlation about 0.5. Edits are read from barcodes.

B1: mreC I27P (protein)
chain: MKPIFSRGPSLQIRLILAVLVALGIIPADSRLGTFSQIRTYMDTAVSPFYFVSNAPRELLDGVSQTLASRDQLELENRALRQELLLKNSELLMLGQYKQENARLRELLGSPLRQDEQKMVTQVISTVNDPYSDQVVIDKGSVNGVYEGQPVISDKGVVGQVVAVAKLTSRVLLICDATHALPIQVLRNDIRVIAAGNGCTDDLQLEHLPANTDIRVGDVLVTSGLGGRFPEGYPVAVVSSVKLDTQRAYTVIQARPTAGLQRLRYLLLLWGADRNGANPMTPEEVHRVANERLMQMMPQVLPSPDAMGPKLPEPATGIAQPTPQQPATGNAATAPAAPTQPAANRSPQRATPPQSGAQPPARAPGGQ
B2: mreC V162W (protein)
chain: B1 chain with P27I, V162W
B3: mreC I124W (protein)
chain: B1 chain with P27I, I124W
B4: mreC V162Q (protein)
chain: B1 chain with P27I, V162Q
B5: mreC V123Q (protein)
chain: B1 chain with P27I, V123Q
B6: mreC I124A (protein)
chain: B1 chain with P27I, I124A
B7: mreC V162A (protein)
chain: B1 chain with P27I, V162A

Biological target: Escherichia coli (laboratory strain)
Test: barcode share on antibiotic plates over drug-free plates; higher = less susceptible
Procedure: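 A pool of E. coli strains, each edited to carry one amino-acid change in an essential protein, was grown for 48 h on minimal glucose agar with or without antibiotic; strain barcodes were sequenced; mean of two replicates.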

[1] = antibiotic: carbenicillin, 2× MIC (3.1 µg/mL)
[2] = antibiotic: gentamicin, 2× MIC (MIC 0.45 µg/mL)

| Protein | fold change of barcode share [1] | fold change of barcode share [2] |
| --- | --- | --- |
| B1 | 0.289 ± 0.15 | < 0.00683 |
| B2 | 0.315 ± 0.15 | 0.00623 ± 0.0019 |
| B3 | 0.186 ± 0.021 | < 0.0104 |
| B4 | 0.431 ± 0.099 | 0.0037 ± 0.0013 |
| B5 | 0.247 ± 0.094 | < 0.0121 |
| B6 | 0.357 ± 0.13 | < 0.0157 |
| B7 | 0.21 ± 0.058 | 0.00421 ± 0.0032 |
